Each structure is given as a SMILES string. In all, about 39,000 compounds went through this assay and about 220 (0.56%) showed activity. This is one part of the list.
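Further: static incubation at 37 °C against the wild-type strain, values averaged over two biological replicates.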

The assay relates to Escherichia coli K-12 BW25113. As to the kind of experiment: relative growth (OD600 normalised to plate interquartile mean) (fraction); higher = less growth inhibition, active = 0.2 or less. The conditions noted are these: 50 µM; LB; incubation time: overnight (16-24 h).
Consider `Cc1ccc(S(=O)(=O)N(c2cccc(-n3cc(CCC(=O)NO)nn3)c2)S(=O)(=O)c2ccc(C)cc2)cc1`, for which the relative growth was inactive: 0.945.

In the case of `C[C@@H]1CCCCO[C@@H](CN(C)C(=O)Nc2ccc3c(c2)OCO3)[C@H](C)CN([C@@H](C)CO)C(=O)c2cc(NC(=O)c3ccccc3)ccc2O1`, the relative growth is inactive: 1.02. Take `COc1ccc(CN(C)C[C@@H]2OCCCC[C@@H](C)Oc3ccc(NC(=O)Nc4ccc(F)cc4)cc3C(=O)N([C@H](C)CO)C[C@H]2C)cc1`: the relative growth is inactive: 0.988. For the molecule `CC[C@H]1COCCC(=O)N1`, the relative growth is inactive: 0.988. Regarding `Cc1cc(O)cc(C)c1Cl`, the relative growth is inactive: 0.463. The figure for `C[C@@H]1CN([C@@H](C)CO)C(=O)c2cc(NC(=O)Nc3ccc(F)cc3)ccc2O[C@H]1CN(C)Cc1ccc(C(F)(F)F)cc1` is inactive: 1.06.

`C[C@H]1CN([C@@H](C)CO)C(=O)Cc2cc(NC(=O)Nc3ccc(C(F)(F)F)cc3)ccc2O[C@H]1CN(C)Cc1ccc(Oc2ccccc2)cc1`: the relative growth is inactive: 1. As to `C[C@@H]1CN([C@@H](C)CO)C(=O)Cc2cc(NC(=O)Nc3ccc(C(F)(F)F)cc3)ccc2O[C@@H]1CN(C)S(=O)(=O)c1ccc(Cl)cc1`, the relative growth was inactive: 1.04. Take `C[C@@H]1CCCCO[C@H](CN(C)C(=O)Cc2ccccc2)[C@H](C)CN([C@@H](C)CO)C(=O)c2cc(NS(=O)(=O)c3cccs3)ccc2O1`: the relative growth is inactive: 1.02. `C[C@@H]1CCCCO[C@@H](CN(C)S(=O)(=O)c2ccccc2)[C@@H](C)CN([C@H](C)CO)C(=O)c2cc(NC(=O)C3CCCCC3)ccc2O1`: the relative growth was inactive: 1.01. The figure for `Oc1cccc(O)c1` is inactive: 1.09; for `Cc1noc(C)c1S(=O)(=O)Nc1ccc2c(c1)C(=O)N([C@H](C)CO)C[C@H](C)[C@@H](CN(C)S(C)(=O)=O)OCCCC[C@H](C)O2` it is inactive: 0.991. For `CC(C)CC#Cc1cnc2c(c1)C(=O)N([C@H](C)CO)C[C@H](C)[C@H](CN(C)C(=O)CN1CCOCC1)O2`, the relative growth is inactive: 1.01. For the molecule `C[C@H]1CN([C@@H](C)CO)C(=O)c2cccc(NS(=O)(=O)c3cccs3)c2O[C@H]1CN(C)S(=O)(=O)c1cccs1`, the relative growth is inactive: 0.998. For `Cc1noc(C)c1NC(=O)N(C)C[C@H]1OCCCC[C@@H](C)Oc2ccc(NS(=O)(=O)c3cccs3)cc2C(=O)N([C@@H](C)CO)C[C@@H]1C`, the relative growth was inactive: 0.977. Turning to `Cc1noc(C)c1S(=O)(=O)Nc1ccc2c(c1)CC(=O)N([C@H](C)CO)C[C@H](C)[C@H](CN(C)Cc1ccc(-c3ccccc3)cc1)O2`, the relative growth is inactive: 1.01. As to `C[C@@H]1CN([C@H](C)CO)C(=O)Cc2cc(NC(=O)NC3CCCCC3)ccc2O[C@@H]1CN(C)Cc1ccc(Cl)c(Cl)c1`, the relative growth was inactive: 0.99.

Regarding `Cc1c(Br)c(=O)n(C)c(=O)n1C`, the relative growth was inactive: 0.969. Take `CNC(=O)C[C@H]1CC[C@@H]2[C@H](COC[C@@H](O)CN2C(=O)Nc2ccc3c(c2)OCO3)O1`: the relative growth was inactive: 1.

As for `C[C@@H]1CN([C@H](C)CO)C(=O)c2cc(NC(=O)Nc3ccccc3)ccc2O[C@H]1CN(C)Cc1ccc(C(F)(F)F)cc1`, the relative growth is inactive: 1.03. Turning to `C[C@H](CO)N1C[C@H](C)[C@H](CN(C)S(=O)(=O)c2ccccc2)Oc2ccc(NC(=O)Cc3ccccc3)cc2CC1=O`, the relative growth was inactive: 0.987.

With `O=C(CCCCCNC(=O)OCCCCO[C@@H]1C[C@H](c2ccccc2)C=C(C(=O)N2CCOCC2)O1)NO`, the relative growth is inactive: 0.998. `COc1ccc(NC(=O)Nc2ccc3c(c2)C(=O)N([C@@H](C)CO)C[C@@H](C)[C@H](CN(C)C(=O)Nc2ccc(C(F)(F)F)cc2)OCCCC[C@H](C)O3)cc1`: the relative growth is inactive: 1.04.

Regarding `CO[C@@H]1CN(C)C(=O)c2cc(NS(C)(=O)=O)ccc2OC[C@@H](C)N(C(=O)c2ccc3c(c2)OCO3)C[C@H]1C`, the relative growth was inactive: 0.986. Consider `C[C@H]1CCCCO[C@H](CN(C)S(=O)(=O)c2ccc(F)cc2)[C@@H](C)CN([C@@H](C)CO)C(=O)c2cc(NC(=O)Nc3ccc4c(c3)OCO4)ccc2O1`, for which the relative growth is inactive: 1.03. Consider `Cc1noc(C)c1NC(=O)N(C)C[C@H]1Oc2cc(C#CCN(C)C)ccc2S(=O)(=O)N([C@H](C)CO)C[C@@H]1C`, for which the relative growth was inactive: 0.976.

Take `C[C@@H]1CN([C@@H](C)CO)C(=O)Cc2cc(NC(=O)Nc3cccc4ccccc34)ccc2O[C@@H]1CN(C)S(=O)(=O)c1cccs1`: the relative growth was inactive: 1.05. Regarding `C[C@H]1CN([C@@H](C)CO)C(=O)c2c(c3ccccc3n2C)-c2ccccc2CO[C@H]1CN(C)C(=O)NC1CCCCC1`, the relative growth is inactive: 1.01. `CCCN1C[C@H](C)[C@H](OC)CN(C)C(=O)c2ccc(NS(=O)(=O)c3cn(C)cn3)cc2OC[C@H]1C`: the relative growth was inactive: 1.01.

For the molecule `C[C@H](CO)N1C[C@H](C)[C@H](CN(C)Cc2ccc(Oc3ccccc3)cc2)Oc2c(NC(=O)c3ccncc3)cccc2C1=O`, the relative growth is inactive: 1.

With `C[C@H](CO)N1C[C@H](C)[C@@H](CN(C)Cc2ccc(C(F)(F)F)cc2)Oc2ccc(NC(=O)Cc3cn(C)c4ccccc34)cc2C1=O`, the relative growth is inactive: 1.06.

With `COCC#Cc1ccc2c(c1)O[C@H](CN(C)S(=O)(=O)c1cccc(OC)c1)[C@@H](C)CN([C@@H](C)CO)S2(=O)=O`, the relative growth was inactive: 1.02.

As to `CC(=C(CCOP(=O)(O)O)SC(=O)c1ccccc1)N(C=O)Cc1cnc(C)nc1N`, the relative growth was inactive: 1.1. Regarding `OCc1ccc2c(c1)NCCO2`, the relative growth was inactive: 1.02. Consider `C[C@H](CO)N1C[C@H](C)[C@@H](CN(C)C)OCCCC[C@H](C)Oc2ccc(NC(=O)Nc3cccc4ccccc34)cc2C1=O`, for which the relative growth is inactive: 1.02. As to `COc1ccc(C#Cc2ccc3c(c2)O[C@@H](CN(C)S(=O)(=O)c2ccccc2F)[C@@H](C)CN([C@H](C)CO)S3(=O)=O)cc1`, the relative growth was inactive: 0.956. In the case of `C[C@@H]1CN([C@@H](C)CO)C(=O)Cc2cc(NC(=O)CCC(F)(F)F)ccc2O[C@H]1CN(C)Cc1ccc(-c2ccccc2)cc1`, the relative growth was inactive: 1.03.

As for `N#CCC(=O)NN`, the relative growth was inactive: 1.08. Take `C[C@@H]1CN([C@H](C)CO)C(=O)c2cc(NC(=O)c3ccncc3)ccc2O[C@@H](C)CCCCO[C@@H]1CN(C)C(=O)Nc1cccc2ccccc12`: the relative growth was inactive: 0.995. Regarding `Cc1ccc(S(=O)(=O)N(C)C[C@H]2Oc3c(NC(=O)c4ccncc4)cccc3C(=O)N([C@@H](C)CO)C[C@H]2C)cc1`, the relative growth is inactive: 1.01.

In the case of `C[C@@H]1CN([C@H](C)CO)C(=O)c2cccc(NC(=O)Nc3ccc(C(F)(F)F)cc3)c2O[C@H]1CN(C)Cc1ccc(C(=O)Nc2ccccc2N)cc1`, the relative growth is inactive: 0.988. On to `CC[C@H](C(=O)O)N1CCCC1`, for which the relative growth is inactive: 1.01.

For `CN(C)CC(=O)N[C@@H]1CC[C@@H](CC(=O)O)O[C@@H]1CO`, the relative growth is inactive: 0.983. The value for `COc1ccccc1-c1ccc2c(c1)O[C@@H](CN(C)C(=O)c1cccnc1)[C@@H](C)CN([C@@H](C)CO)S2(=O)=O` was inactive: 1.

For `C[C@@H]1CCCCO[C@H](CN(C)S(=O)(=O)c2ccc(Cl)cc2)[C@@H](C)CN([C@@H](C)CO)C(=O)c2cc(NS(=O)(=O)c3ccc(F)cc3)ccc2O1`, the relative growth is inactive: 1.02.

Consider `Cc1ccc(S(=O)(=O)Nc2ccc3c(c2)C(=O)N([C@@H](C)CO)C[C@H](C)[C@@H](CN(C)C(=O)Nc2cccc4ccccc24)OCCCC[C@H](C)O3)cc1`, for which the relative growth is inactive: 1.

For `O=C(C[C@H]1C=C[C@@H](NS(=O)(=O)c2ccc(F)cc2)[C@H](CO)O1)N1CCC(Cc2ccccc2)CC1`, the relative growth was inactive: 0.927. As for `C[C@@H]1CCCCO[C@@H](CN(C)Cc2ccc(Cl)c(Cl)c2)[C@H](C)CN([C@@H](C)CO)C(=O)c2cc(NC(=O)Nc3ccc(F)cc3)ccc2O1`, the relative growth was inactive: 1.02. The value for `C[C@@H]1CN([C@@H](C)CO)C(=O)c2cc(NC(=O)CCN3CCOCC3)ccc2O[C@H]1CN(C)Cc1ccc2c(c1)OCO2` was inactive: 1.01. On to `O=C(C[C@@H]1CC=CCCC(=O)OC[C@H](Cc2c[nH]c3ccccc23)NC1=O)N[C@@H](CO)Cc1ccccc1`, for which the relative growth is inactive: 0.993. On to `C[C@H]1CN([C@@H](C)CO)C(=O)Cc2cc(NS(=O)(=O)c3ccccc3)ccc2O[C@H]1CN(C)Cc1ccc(C(=O)O)cc1`, for which the relative growth was inactive: 0.924. With `Nc1no[n+]([O-])c1-c1ccccc1`, the relative growth was inactive: 0.939. For the molecule `Cc1ccc(S(=O)(=O)N(C)C[C@H]2Oc3c(NC(=O)NC(C)C)cccc3C(=O)N([C@H](C)CO)C[C@@H]2C)cc1`, the relative growth is inactive: 0.992.

For the molecule `Cc1noc(C)c1NC(=O)N(C)C[C@H]1Oc2c(NS(C)(=O)=O)cccc2C(=O)N([C@H](C)CO)C[C@H]1C`, the relative growth was inactive: 0.99. Regarding `C[C@H]1CN([C@@H](C)CO)C(=O)c2cccc(NC(=O)Nc3ccc4c(c3)OCO4)c2O[C@H]1CN(C)Cc1ccc(C(F)(F)F)cc1`, the relative growth was inactive: 0.908. Regarding `COc1ccc(S(=O)(=O)N2C[C@@H](O)COC[C@H]3O[C@H](CC(=O)N[C@@H]4CCN(Cc5ccccc5)C4)CC[C@@H]32)cc1`, the relative growth is inactive: 0.97. As to `CN(C)C(=O)CN1CCn2cc(Cn3cncn3)nc2C1`, the relative growth is inactive: 1. As for `C[C@@H]1CCCCO[C@@H](CN(C)C(=O)C2CCCCC2)[C@@H](C)CN([C@@H](C)CO)C(=O)c2cc(NC(=O)NC3CCCCC3)ccc2O1`, the relative growth was inactive: 0.987. Turning to `COc1ccc(NC(=O)N(C)C[C@H]2Oc3ccc(NC(=O)Nc4ccc(C(F)(F)F)cc4)cc3CC(=O)N([C@@H](C)CO)C[C@H]2C)cc1`, the relative growth is inactive: 1.04. The figure for `C[C@@H]1CN([C@@H](C)CO)C(=O)c2c(c3ccccc3n2C)-c2ccccc2CO[C@@H]1CN(C)Cc1cccc(C(=O)O)c1` is inactive: 0.999; for `C[C@@H]1CN([C@H](C)CO)C(=O)c2cc(NS(C)(=O)=O)ccc2O[C@@H](C)CCCCO[C@H]1CN(C)S(=O)(=O)c1cccs1` it is inactive: 0.967.
